Laboratory results reported in PubChem BioAssay AID1476 (National Center for Advancing Translational Sciences (NCATS), 2009).
Hit rate of the full screen: of about 200,000 compounds, about 4,500 (2.2%) were called active. Inconclusive means that the source gave no clear call. Such entries were picked first, then a sample of the others. Calls come from the whole dose curve; as a rule, active = well fitted inhibition curve with a large enough effect; inconclusive = small, poorly fitted or top-dose-only effect, or effect the other way; inactive = flat fitted curve, though single readings scatter. Potencies beside an inconclusive call are fits to weak or partial responses and may not hold up.

The compounds below were run against Cruzipain (Trypanosoma cruzi) (UniProt P25779) (assay: qHTS Assay for Promiscuous and Specific Inhibitors of Cruzain (without detergent)). Details: purified cruzain, Z-FR-AMC fluorescence, no detergent.
Sequence of UniProt P25779 (P25779 whole entry, looked up): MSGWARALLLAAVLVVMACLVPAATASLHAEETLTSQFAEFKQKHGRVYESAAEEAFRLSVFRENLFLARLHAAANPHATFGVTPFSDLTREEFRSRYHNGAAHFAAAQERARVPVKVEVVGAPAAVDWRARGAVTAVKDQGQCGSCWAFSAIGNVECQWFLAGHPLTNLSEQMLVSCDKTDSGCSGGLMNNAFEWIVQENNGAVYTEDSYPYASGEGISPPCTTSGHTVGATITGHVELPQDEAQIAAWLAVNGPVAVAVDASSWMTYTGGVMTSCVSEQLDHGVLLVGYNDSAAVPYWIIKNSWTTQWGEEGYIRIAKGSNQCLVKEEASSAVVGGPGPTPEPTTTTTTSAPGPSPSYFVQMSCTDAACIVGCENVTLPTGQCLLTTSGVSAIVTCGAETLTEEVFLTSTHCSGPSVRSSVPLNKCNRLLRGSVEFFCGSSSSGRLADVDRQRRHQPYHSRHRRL
How it was run: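 Detergent-free condition (0.00005% Triton X-100) in acetate buffer pH 5.5 with DTT. 1.5 nM enzyme and compound were pre-mixed 15 min, then 2 uM Z-FR-AMC substrate added; reaction progress from fluorescence change between first and third reads (60 s).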
Note: nearly all actives have a fitted effect of over 40% in size.
Potency is the fitted concentration of half-maximal effect; tags give direction and shape of the fitted curve.
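Throughout, for max response, negative = inhibition: plate controls were enzyme without inhibitor for no effect and buffer without enzyme for full effect.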

Compound	max response, negative = inhibition	Potency
FC(F)(F)c1ccccc1-c1nccc(-n2ccnc2)n1	inactive: 9.34%	
CN(C)S(=O)(=O)c1ccc(NCC2COc3ccccc3O2)c([N+](=O)[O-])c1 (configuration not stated)		inconclusive: 31.6 µM [inhibitor, single point]
COc1ccc(OC)c(NC(=O)CSc2nc(=O)n(CCN(C)C)c3c2CCC3)c1	inactive: -4.25%	
COC(=O)C1(Cc2ccccc2)C2c3cc(C(=O)N4CCCC4)n(Cc4ccc(OC(F)(F)F)cc4)c3CC2CN1C(=O)c1ccccc1 (configuration not stated)		inconclusive: 10 µM [activator, partial curve]
CCOC(=O)C1=C(C)NC2=C(C(=O)CC(c3ccc(OC)c(OC)c3)C2)C1c1ccc(C)o1 (configuration not stated)		inconclusive: 31.6 µM [activator, single point]
CCCCN(CCCC)S(=O)(=O)c1ccc(C(=O)Nc2nnc(CSC)o2)cc1		inconclusive: 20 µM [inhibitor, single point]
COc1ccc(NC(=O)CSc2nc3ccccc3c(=O)n2-c2ccc3c(c2)OCO3)c(OC)c1		inconclusive: 39.8 µM [inhibitor, single point]
Cc1cccc(-n2c(SCN3C(=O)c4ccccc4C3=O)nc3ccccc3c2=O)c1		inconclusive: 31.6 µM [inhibitor, single point]
O=C(C[n+]1cc(-c2ccccc2)n2c1CCC2)Nc1nc(-c2ccccc2)cs1	inactive: -19.6%	
CCOc1cc(/C=C2\CCC/C(=C\c3cc(Cl)c(O)c(OCC)c3)C2=O)cc(Cl)c1O		active: 12.6 µM
O=C(Nc1ccccc1-c1nnc(SCc2ccc(Cl)cc2Cl)o1)c1ccccc1		inconclusive: 39.8 µM [inhibitor, single point]
CCOC(=O)c1cc(-c2ccccc2)n(-c2cccc(C(=O)Nc3cccc(SC)c3)c2)c1C		active: 10 µM
CCOc1cccc(-c2nnc3sc(COc4ccc(Cl)cc4)nn23)c1		inconclusive: 39.8 µM [inhibitor, single point]
N#C/C(=C\c1cn(Cc2ccc(C#N)cc2)c2ccccc12)C(=O)NCc1cccs1		inconclusive: 31.6 µM [inhibitor, single point]
CC(C)c1nnc(NC(=O)c2c(O)c3cccc4c3n(c2=O)CCC4)s1		inconclusive: 12.6 µM [activator, partial curve]
OCCNCCCCCOc1ccc(F)cc1		inconclusive: 39.8 µM [activator, single point]
COc1ccc(C(=O)/C=C/c2ccc(C)cc2)c(OC(=O)c2ccc([N+](=O)[O-])cc2)c1		inconclusive: 25.1 µM [inhibitor, single point]
